Data from article PMC4336329 (PLoS ONE, 2015).
Among all 310,000 compounds or so, about 2,200 (0.71%) showed an effect of 50% or more. The effect is printed as a negative number. This is one part of the list.

Biological target: human ether-à-go-go-related gene (hERG) potassium channel (human, UniProt Q12809)
Assay: primary screen, population patch clamp on CHO cells stably expressing hERG

Chain of human ether-à-go-go-related gene (hERG) potassium channel (Q12809 whole entry, looked up): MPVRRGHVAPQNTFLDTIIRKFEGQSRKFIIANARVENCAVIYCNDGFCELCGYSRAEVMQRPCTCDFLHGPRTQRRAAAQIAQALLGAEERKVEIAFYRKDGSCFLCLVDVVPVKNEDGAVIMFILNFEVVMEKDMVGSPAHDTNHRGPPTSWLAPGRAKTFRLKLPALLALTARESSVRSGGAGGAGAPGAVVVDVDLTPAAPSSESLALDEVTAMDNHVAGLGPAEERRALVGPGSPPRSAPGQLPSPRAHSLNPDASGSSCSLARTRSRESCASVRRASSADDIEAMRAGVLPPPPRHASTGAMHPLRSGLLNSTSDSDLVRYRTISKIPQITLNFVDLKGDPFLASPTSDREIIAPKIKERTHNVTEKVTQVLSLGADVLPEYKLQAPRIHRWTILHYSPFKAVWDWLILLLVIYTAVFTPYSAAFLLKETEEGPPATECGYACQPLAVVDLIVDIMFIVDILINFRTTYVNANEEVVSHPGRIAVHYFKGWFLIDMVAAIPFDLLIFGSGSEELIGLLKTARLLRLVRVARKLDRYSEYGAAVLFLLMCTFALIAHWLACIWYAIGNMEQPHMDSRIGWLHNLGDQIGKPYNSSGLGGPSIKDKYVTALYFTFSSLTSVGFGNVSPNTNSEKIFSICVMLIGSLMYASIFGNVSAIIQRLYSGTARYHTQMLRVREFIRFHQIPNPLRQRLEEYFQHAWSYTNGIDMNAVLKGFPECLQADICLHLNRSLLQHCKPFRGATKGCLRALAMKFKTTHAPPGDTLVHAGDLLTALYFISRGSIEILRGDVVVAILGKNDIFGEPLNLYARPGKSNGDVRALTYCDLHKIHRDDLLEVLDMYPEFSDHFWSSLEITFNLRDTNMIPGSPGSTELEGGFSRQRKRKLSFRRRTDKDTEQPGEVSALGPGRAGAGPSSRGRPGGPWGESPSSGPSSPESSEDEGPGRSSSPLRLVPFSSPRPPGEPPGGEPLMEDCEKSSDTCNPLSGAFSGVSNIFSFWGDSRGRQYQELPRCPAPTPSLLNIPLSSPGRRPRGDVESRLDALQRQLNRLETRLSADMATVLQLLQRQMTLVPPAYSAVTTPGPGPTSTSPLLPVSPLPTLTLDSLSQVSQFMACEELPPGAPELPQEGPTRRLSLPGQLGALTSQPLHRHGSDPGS

Compound	hERG current change (%, negative = inhibition) at 1uM [%]
CC(C)(C)OC(=O)NNC(=S)NC1CCCCC1	14.4
C/C(N)=C(/C#N)C(=O)CSc1nc2ccccc2c(=O)n1CCCOC(C)C	1.6
O=C(O)c1ccc(CNS(=O)(=O)c2ccc3ccccc3c2)cc1	13.4
Cc1cccc(N/C(=N\S(=O)(=O)c2ccccc2)C(F)(F)F)c1	8.5
CCOC(=O)/C(C#N)=C/c1ccc(SC)cc1	16.4
Cc1cccc(OCc2nnc(SCC(=O)N3CCN(c4ccccc4)CC3)o2)c1C	-2.88
CCOC(=O)C(O)(c1ccc(N(CC)S(=O)(=O)c2ccc(C)cc2)cc1)C(F)(F)F (stereo not drawn)	-2.53
CCCn1nnnc1SCC(=O)Nc1ccc(F)cc1	5.61
CCOC(=O)c1c(C)oc2cc(Br)c(O)c(Br)c12	10
Cc1oc(-c2ccccc2F)nc1CS(=O)CC(=O)NC1CCCCC1 (stereo not drawn)	18.4
CC(OC(=O)/C=C/c1ccc2ccccc2n1)C(=O)NCc1ccccc1 (stereo not drawn)	18.5
CC(/C=C/c1ccco1)=N\NC(=O)c1cccnc1	15
O=C(O)CCCNS(=O)(=O)c1ccc(F)cc1	19
O=C(NC12CC3CC(CC(C3)C1)C2)c1cnccn1	12.1
O=C(O)C1CCC(Cn2c(SCc3cc(=O)n4cc(Cl)ccc4n3)nc3ccsc3c2=O)CC1 (stereo not drawn)	-1.61
Cc1ccc(-c2nn3c(C)nnc3c3ccccc23)cc1S(=O)(=O)N1CCN(CCO)CC1	-27.3
Cn1cc(Cl)c(C(=O)NNC(=S)NCc2ccco2)n1	5.73
O=C(N/N=C\c1ccc(COc2ccc([N+](=O)[O-])cc2)o1)c1ccc(Cl)cc1	-10.8
CN(C)c1cc[n+](CC(O)C[n+]2ccc(N(C)C)cc2)cc1.[O-][Cl+3]([O-])([O-])[O-]	17.2
COc1cccc(-c2sc3ccc(OC)cc3c2C#CCC(C)O)c1 (stereo not drawn)	13.8
Cn1c2ccc(F)cc2c2ncn(Cc3ccco3)c(=O)c21	-6.12
Cc1ccc(S(=O)(=O)NN2C(=O)c3ccccc3NC2c2ccccc2O)cc1 (stereo not drawn)	11.2
CCOC(=O)Cc1csc(NC(=O)COc2ccc3ccccc3c2)n1	-31.3

Compound	hERG current change (%, negative = inhibition) at 1uM [%]
Cc1ccc(S(=O)(=O)NCCC(=O)NCC(c2ccco2)N2CCCCC2)cc1C (stereo not drawn)	-11.7
O=C(N/N=C\c1cc(Br)c(Br)o1)c1cncc(Br)c1	8.58
Cc1c(/C=N\NC(=O)c2ccc(F)cc2)cnn1C	11.9
O=C(O)CC1(c2ccc(F)cc2)C2CC3CC(C2)CC1C3 (stereo not drawn)	20.7
CCOC(=O)C1CCN(CCCSc2ccc(Cl)cc2)CC1.Cl	-48
Cn1nc(C(=O)N2CCN(c3ccccc3)CC2)c2c1-c1ccccc1S(=O)(=O)C2	7.28
COc1ccc(CNC(=O)CCS(=O)(=O)c2ccc3c(c2)oc(=O)n3C)cc1	16.9
CCCC1CCC(C(=O)Nn2c(C)nc3ccccc3c2=O)CC1 (stereo not drawn)	-12
COc1ccc(OC)c(NC(=O)c2ccc3nc(-c4ccccc4)c(-c4ccccc4)nc3c2)c1	26.2
COc1ccccc1CN1C(=O)[C@H]2Cc3c([nH]c4ccccc34)C(C)(C)N2C1=O	12.9
COc1ccc(CNc2cccc3[nH]c(C(F)(F)F)nc23)cc1OC.Cl	11.4
CCc1c(C)c2ccc(OCC(=O)NCC3CCC(C(=O)O)CC3)c(C)c2oc1=O (stereo not drawn)	15.7
CCCOc1ccc(N2C(=O)CC(NCC#N)C2=O)cc1 (stereo not drawn)	7.52
Cc1csc2c(N3CCN(C(=S)Nc4ccc(F)cc4F)CC3)ncnc12	-6.87
COc1cc(/C=N\Nc2nc(-c3ccc(C)cc3)c(NC(C)=O)s2)ccc1O	4.75
Cc1cc(/C=C2\SC(=S)NC2=O)c(C)n1-c1ccc(O)cc1	15.2
COc1ccc(-c2ccc3c(c2)S(=O)(=O)c2cccc(C(=O)NCc4ccccc4Cl)c2C3=O)cc1OC	12
COc1ccc(-n2c(=O)c3c(C)c(C)sc3n(Cc3ccc(F)cc3)c2=O)c(OC)c1	8.32
CC1CCc2nc(NC(=O)Cc3cccs3)sc2C1 (stereo not drawn)	12.7
Cn1c(SCc2ccccc2)nnc1-c1ccncc1	-13
Cc1nnc2c(NC(C)C)nc3ccccc3n12	-5.94
CCN(CC)S(=O)(=O)c1ccc(Cl)c(C(=O)NC2CCCC2)c1	-1.71
